Test results published in the supplement of paper PMC3334620.
The full ranking holds about 33,000 sequences; the median of “E-score (-0.5 to 0.5)” is about -0.012, and the highest 2% start at about 0.27. The list shows a part of the results.

Each sequence was assayed against T1, Vhr1 (UniProt P40522) (assay: PBM E-score (8-mer binding enrichment) (E-score (-0.5 to 0.5)); higher = stronger / more preferred TF binding; most listed sequences are background and not binding sites). Conditions: protein concentration: 200 nM; construct: GST-full length.
T1 sequence: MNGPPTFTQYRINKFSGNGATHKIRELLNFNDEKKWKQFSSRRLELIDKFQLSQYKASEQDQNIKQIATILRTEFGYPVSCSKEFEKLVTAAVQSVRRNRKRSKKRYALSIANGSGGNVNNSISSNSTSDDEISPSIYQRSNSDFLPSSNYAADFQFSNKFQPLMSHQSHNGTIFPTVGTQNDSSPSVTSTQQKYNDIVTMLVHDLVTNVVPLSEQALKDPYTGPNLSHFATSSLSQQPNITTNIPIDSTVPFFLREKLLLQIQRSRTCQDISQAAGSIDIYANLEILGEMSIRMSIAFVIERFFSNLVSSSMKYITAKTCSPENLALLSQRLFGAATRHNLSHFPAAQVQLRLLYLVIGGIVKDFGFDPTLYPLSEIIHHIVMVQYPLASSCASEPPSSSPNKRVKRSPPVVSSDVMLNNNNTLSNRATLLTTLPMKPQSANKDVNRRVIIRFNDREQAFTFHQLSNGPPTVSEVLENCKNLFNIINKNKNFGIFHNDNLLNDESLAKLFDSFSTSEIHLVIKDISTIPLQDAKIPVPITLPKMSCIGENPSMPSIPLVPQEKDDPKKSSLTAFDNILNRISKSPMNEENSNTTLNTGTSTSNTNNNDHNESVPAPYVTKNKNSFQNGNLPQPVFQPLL
Procedure, shortened: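 Universal all-10-mer Agilent arrays, fresh or stripped once, were converted to double-stranded form by primer extension. GST-tagged yeast transcription factors from PURExpress in vitro transcription/translation, full-length or DNA-binding domain only, were applied at about 100-200 nM and detected with fluorescent anti-GST. After masliner normalisation, the Universal PBM Analysis Suite scored each ungapped eight-base word together with its reverse complement by E-score.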

Point of comparison: CTAGCTTC, “PBM E-score” value 0.0748. Against it:
- CTCGTCAA — lower, 0.0355
- AGTTATAC — higher, 0.0762
- ACCGAGAC — lower, 0.0377
- ACTAAGAC — lower, 0.0313
- GTTCGCGA — lower, 0.0419
- CTGTAAAC — lower, -0.116
- TAGAGGGA — lower, -0.0999
- CGTATACC — lower, -0.00821
- CTTCCCTC — lower, 0.0173
- ACCTCCCT — lower, 0.0523
- ACGCCACA — lower, 0.0233
- CGGCATCC — lower, -0.0935
- AAGCAGGT — lower, -0.064
- ACCGGAGC — lower, -0.062
- CGAATACG — higher, 0.122
- CAACCTCG — lower, -0.0372
- GCCTGACA — lower, -0.198
- CTATCTAC — lower, -0.0686
- TACCAACA — higher, 0.145
- TCTGTGCA — lower, 0.0513
- TGGAGAAA — lower, -0.212
- CCAATCTA — higher, 0.111
- AATCCCGC — lower, 0.0617
- AGTAAGTC — lower, 0.0628
- AGTCGTCA — higher, 0.165
- GGCAAAAA — lower, -0.058
- AAAACGCG — lower, 0.0358
- ACATCTCT — higher, 0.157
- AACATTTG — lower, -0.224
- CGCCAGTA — lower, 0.0114
- GATCGTAC — lower, 0.062
- AAGGTCCG — lower, -0.0694
- CAGTTTCC — lower, 0.0137
- GATTCGCC — higher, 0.105
- TGGCCAAA — lower, -0.255
- ACCACCTC — lower, -0.0353
- GGAGGGTA — higher, 0.0984
- CCCTACAA — lower, 0.0169
- CAAAAGGC — lower, -0.0731
- TTAAACAA — lower, -0.193
- CATCCGGG — lower, -0.0984
- CATTTTCC — lower, -0.255
- GGCACGCC — lower, -0.218
- GTATACGA — higher, 0.132
- AATGAACA — lower, 0.0601
- CGGCCACA — lower, -0.0182
- GCATGCTA — lower, -0.138
- ACGACCCA — higher, 0.224
- ATGTATAC — higher, 0.165
- CATTGATC — lower, 0.0435
- GAACTTTA — lower, -0.295
- CGGGCCTA — lower, 0.0265
- GACGAGCC — higher, 0.151
- ACCCGGAT — lower, 0.0629
- CGGACCAG — lower, -0.0971
- ACACGGCG — higher, 0.0799
- CAAAGCGC — lower, -0.217
- ATGAATGG — higher, 0.234
- CGCAATTC — lower, -0.0548
- ACGCGTAA — lower, -0.0808
- AGGCTCAA — lower, -0.263
- AACCTCAT — lower, -0.0289
- GCAACAGA — lower, -0.122
- ATCCCGCC — higher, 0.205
- ACCACAGG — lower, 0.0559
- GGCTATAA — lower, -0.0926
- AGATAGAT — lower, -0.155
- ATCCTTAG — lower, -0.116
- ATCTCACG — lower, -0.12
- CAGCACCC — lower, -0.143
- GCTGGCAC — lower, -0.156
- ATTTGTCC — lower, -0.0847
- ATCAAGAG — higher, 0.166
- CTCACCAA — higher, 0.265
- ACGTGCGA — lower, -0.0503
- ATGGAATC — higher, 0.28
- ATTGGACC — lower, -0.12
- CTGATGCC — lower, -0.162
- CTTTCTCC — lower, -0.2
- CTAATCAC — higher, 0.27
- ACTACATA — higher, 0.133
- AACCGCAA — higher, 0.175
- GTCTCTAA — lower, -0.167
- CCAAAGCC — lower, -0.193
- CCGTCTAG — lower, -0.047
- ACACAGTC — higher, 0.181
- CTCATGGC — higher, 0.187
- TAGCTATA — lower, -0.048
- GCCCTAAC — lower, -0.0388
- AAGGACTG — lower, -0.127
- GTTCCCGA — lower, 0.00116
- TAAGGCTA — lower, -0.257
- AAGAGATT — lower, -0.158
